Results as given in the BET-seq Pho4 binding data (Le et al. 2018).
This is one part of the list. These are noisy estimates, calculated here from bound and input reads.

target: T1, Pho4 (S. cerevisiae) (UniProt P07270); experiment: relative binding free energy (BET-seq); higher = weaker binding; conditions: reference: library average
T1 sequence: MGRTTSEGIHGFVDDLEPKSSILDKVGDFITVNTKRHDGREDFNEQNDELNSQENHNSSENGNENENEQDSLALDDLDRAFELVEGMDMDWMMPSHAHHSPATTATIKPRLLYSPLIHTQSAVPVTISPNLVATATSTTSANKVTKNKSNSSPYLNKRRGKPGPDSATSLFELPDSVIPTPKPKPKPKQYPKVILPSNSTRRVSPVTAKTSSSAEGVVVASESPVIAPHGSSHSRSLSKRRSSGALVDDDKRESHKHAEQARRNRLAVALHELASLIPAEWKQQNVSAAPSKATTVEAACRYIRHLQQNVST

Relative binding free energy, -0.14 kcal/mol:
TATGCCACGTGTTTAG
ATACGCACGTGGAGTG
CGGGACACGTGGGTGA
GGGTGCACGTGGCGAG

Relative binding free energy, 0.25 kcal/mol:
GTATACACGTGATGGT
AGTTACACGTGCGTTC
GTCTTCACGTGTTTGT

Relative binding free energy, 0.18 kcal/mol:
GAGTACACGTGTTTTT
TATCTCACGTGGGTGC
GGTGACACGTGAGCAG

Relative binding free energy, -0.33 kcal/mol:
ATAGGCACGTGGCAGT
TTACGCACGTGGGATG

Relative binding free energy, -0.23 kcal/mol:
CTAGGCACGTGGTATA
CTGAGCACGTGGGCGG

Relative binding free energy, 0.14 kcal/mol:
ACTTTCACGTGGGATA
TTCATCACGTGTATGA
GGTCACACGTGTGCTG
AGTATCACGTGTTAGT
TATTGCACGTGAATGC

Relative binding free energy, 0.11 kcal/mol:
TTGTCCACGTGTTTCG

Relative binding free energy, 0.34 kcal/mol:
GTTTACACGTGAGTTG

Relative binding free energy, 0.28 kcal/mol:
TTTAACACGTGAGGTC
AGATTCACGTGGTAGC
AGGTTCACGTGAACTG

Relative binding free energy, 0.02 kcal/mol:
ATGCACACGTGGCTGG
TGTCACACGTGTAGTT
GTACGCACGTGCGGGT
CGGAGCACGTGGCGTG

Relative binding free energy, 0.3 kcal/mol:
GGTAGCACGTGAATGT

Relative binding free energy, 0.39 kcal/mol:
TGGATCACGTGAGTAG
GTGATCACGTGACTGT

Relative binding free energy, 0.31 kcal/mol:
GAGTTCACGTGTGTGC
CTAGTCACGTGAGTGT

Relative binding free energy, 0.44 kcal/mol:
TTGTTCACGTGAGGCC

Relative binding free energy, 0.04 kcal/mol:
CGCTACACGTGGGGGG
TTAGTCACGTGGCAGT

Relative binding free energy, 0.08 kcal/mol:
TTAATCACGTGGGGAC
TTGCTCACGTGGTATT
GGATACACGTGCGTTT
GGTTGCACGTGTTTAC
TTTTGCACGTGATATG

Relative binding free energy, -0.04 kcal/mol:
AGGTCCACGTGCGTGG
GTGGGCACGTGTATTG
CGAAGCACGTGGGATT
TTAGTCACGTGGTCCT
TGCGGCACGTGTGGTG

Relative binding free energy, 0.33 kcal/mol:
TAGTTCACGTGATGAT

Relative binding free energy, 0.46 kcal/mol:
TGGACCACGTGAGATG

Relative binding free energy, 0.23 kcal/mol:
GGAATCACGTGTGTGT
TACATCACGTGTTGGC
AATTTCACGTGACGTT
CAGTTCACGTGGTGGG
GTTGTCACGTGTATTC
GATATCACGTGATTAG

Relative binding free energy, 0.06 kcal/mol:
TGTGTCACGTGGTAGG
TATGGCACGTGTGATC
TAGTACACGTGGTGTC
TTAGACACGTGAGTTA
GTTTACACGTGGTTCA
TATTGCACGTGAGGAG

Relative binding free energy, -0.3 kcal/mol:
ACGTGCACGTGGGTGC

Relative binding free energy, 0 kcal/mol:
CGAGGCACGTGGATGA

Relative binding free energy, 0.2 kcal/mol:
TTTACCACGTGAGGGT
GCGAGCACGTGAAGGT
ACGTGCACGTGAGGCG
CTTGTCACGTGTAGGG

Relative binding free energy, 0.03 kcal/mol:
ATAGGCACGTGAGAGG
AGTTACACGTGGCGGG
TAGGGCACGTGAAGCG
AGTTGCACGTGTTTTT
AGTCACACGTGTTGGG
AGGGCCACGTGTAAGT
CTGGTCACGTGTTATA

Relative binding free energy, 0.05 kcal/mol:
TATTGCACGTGTAGGC
AGGTGCACGTGTATTA
TTTGTCACGTGGGGAG
GATTGCACGTGTTTTA
CAGTACACGTGTTGGT

Relative binding free energy, 0.09 kcal/mol:
TTTTCCACGTGTGTAT
GTGTACACGTGTTTAA
AGGTGCACGTGTTTTT
GTTGTCACGTGGTGAC
TGTACCACGTGAGGTG
CAATACACGTGTGTGT
AAGCTCACGTGGGAGG
TATTACACGTGTTGCT
TAGGGCACGTGAGTTG
GGTAGCACGTGATGAT

Relative binding free energy, -0.25 kcal/mol:
TGTCGCACGTGGGTTA

Relative binding free energy, -0.1 kcal/mol:
CACGGCACGTGTGGGT
TACGGCACGTGTTTTT
GGTGGCACGTGGTGGG
AGGTACACGTGTTAGT

Relative binding free energy, 0.12 kcal/mol:
GGTTCCACGTGTTAAG
TGGCTCACGTGTAGTA
ATAGTCACGTGTGATC
ACCTACACGTGGTGTG
TTTATCACGTGGCTAT
GTGTACACGTGTGTGT

Relative binding free energy, 0.01 kcal/mol:
CATGACACGTGGCGGG
AGTCGCACGTGTGTTG

Relative binding free energy, 0.29 kcal/mol:
TTTTGCACGTGAAGCG
GACTTCACGTGGTTGG
TTTTTCACGTGTTCTT
TAGATCACGTGAGAGT

Relative binding free energy, 0.16 kcal/mol:
CATGTCACGTGTTTAT
AGATTCACGTGGGTTA

Relative binding free energy, 0.19 kcal/mol:
TTGTGCACGTGAGAAA
ACTTACACGTGTGGTA
TGGCTCACGTGTGAAT
ACGGACACGTGAGGGG

Relative binding free energy, 0.43 kcal/mol:
GGGGTCACGTGAAAGT

Relative binding free energy, -0.02 kcal/mol:
TTAGACACGTGCGGGC
TTGTGCACGTGCAATT
AATGACACGTGGCGTG
GATGGCACGTGGATCG
TTTTGCACGTGGCGAT
GGGAGCACGTGTTGGA
GCTGACACGTGGCGGG
CTGGTCACGTGGGAGT

Relative binding free energy, -0.17 kcal/mol:
TAGCGCACGTGGGAAG

Relative binding free energy, -0.11 kcal/mol:
ATTGACACGTGGGATG
TTTTGCACGTGGGTAT
TGTGACACGTGTGTGA
GGTAGCACGTGCAGGT

Relative binding free energy, 0.49 kcal/mol:
TTACTCACGTGAGATT

Relative binding free energy, 0.36 kcal/mol:
GTTATCACGTGAGGAG

Relative binding free energy, 0.35 kcal/mol:
GGTTACACGTGCAAGG

Relative binding free energy, 0.07 kcal/mol:
GGTGTCACGTGTATAC
CATGACACGTGGTGGA
TGTTACACGTGCTGGG
AGTATCACGTGGCGAT
ATGGGCACGTGATTCG
GTAATCACGTGTTTAA
ATGGTCACGTGGAACG
TTTTACACGTGCCGTG
AAGTACACGTGTATTT
ATGGTCACGTGAGTGC
GCAATCACGTGTAGGG
AGGATCACGTGGGTAC
TATGTCACGTGGACTG
ATGCCCACGTGAGGGG

Relative binding free energy, 0.21 kcal/mol:
GGAAACACGTGTAGAG
GTGTACACGTGACGTT

Relative binding free energy, -0.34 kcal/mol:
AGTAGCACGTGGGCGT

Relative binding free energy, -0.27 kcal/mol:
TGGCCCACGTGGGTGG
TGTAGCACGTGCGCGT

Relative binding free energy, -0.24 kcal/mol:
GGAAGCACGTGGGGTC

Relative binding free energy, 0.13 kcal/mol:
GTGAACACGTGCCGGG
GACGTCACGTGTGTGA
CTATTCACGTGGGATA
TTCAACACGTGTGTAT
TGGGTCACGTGTCGTA
GTTAACACGTGGAGGA
AGGGCCACGTGAAGGG

Relative binding free energy, 0.24 kcal/mol:
GGTTTCACGTGGGGGG
ACGGTCACGTGGAGGT
GTAGTCACGTGTGTGG

Relative binding free energy, 0.22 kcal/mol:
AAATTCACGTGTATTT
AATTTCACGTGGGAAG
GGTCACACGTGTTGTT
TCTTTCACGTGGGTTT
GGGGTCACGTGCACTT

Relative binding free energy, 0.37 kcal/mol:
GGTTTCACGTGCACTG

Relative binding free energy, -0.08 kcal/mol:
GTGGGCACGTGACCTG
CATGTCACGTGGCGGG
TTGAACACGTGGGGCG
GCGTGCACGTGGTGTG
AGCGGCACGTGGCTGT
AGTGCCACGTGTCGGT

Relative binding free energy, -0.12 kcal/mol:
ATGGGCACGTGGATGG
GTGGGCACGTGCTCAG
GAGTCCACGTGGGTGG
TCGGTCACGTGGGTCA
TTTGACACGTGGGGGA

Relative binding free energy, -0.01 kcal/mol:
TGTCGCACGTGTCGTT
AGGGGCACGTGTAAGC
ATAAACACGTGCTGTT

Relative binding free energy, -0.19 kcal/mol:
GGGGCCACGTGTGTTT

Relative binding free energy, 0.32 kcal/mol:
ATGATCACGTGATTTG

Relative binding free energy, 0.1 kcal/mol:
TTGGACACGTGTAAGG
ATGTTCACGTGCGTAA
GGTGACACGTGGTATC
AGACGCACGTGAGGGG
AGAGACACGTGATTTT
TTTGCCACGTGATTTG
CGATTCACGTGGTGGA
CTGGACACGTGAGTGT

Relative binding free energy, -0.18 kcal/mol:
TATGGCACGTGGGAGG

Relative binding free energy, 0.5 kcal/mol:
GATGTCACGTGAGGTT

Relative binding free energy, 0.26 kcal/mol:
GGCTTCACGTGGGTGT
TACTTCACGTGGGGAT
AGTTACACGTGGAATT

Relative binding free energy, -0.28 kcal/mol:
CAGGGCACGTGGCTGG

Relative binding free energy, -0.13 kcal/mol:
AGTGGCACGTGCCTTT
TGATGCACGTGGTGGG
CGTGGCACGTGGTTAG

Relative binding free energy, -0.05 kcal/mol:
ACGTGCACGTGGTGGG
TGCTACACGTGGTGCT
GGCTGCACGTGGCGTG
TGTGGCACGTGATGTA

Relative binding free energy, -0.32 kcal/mol:
CGTAGCACGTGGCGGT

Relative binding free energy, -0.06 kcal/mol:
GAGAACACGTGGGTGT
GCTGGCACGTGGTTAA
GTAGGCACGTGTGGCA
TGAGGCACGTGGTATG
CAGGTCACGTGTATGT
TTGCACACGTGGTGCG
GTAGACACGTGTGTGA
ATTTGCACGTGCGGGT

Relative binding free energy, 0.15 kcal/mol:
ATGCTCACGTGGGGGT
AATGACACGTGTGAAT
TTATACACGTGGCTTA
CTGGTCACGTGCGGGA

Relative binding free energy, -0.15 kcal/mol:
CCGGGCACGTGGGTTT
CCTTGCACGTGGTTTG
TTGTGCACGTGCTGCT

Relative binding free energy, -0.07 kcal/mol:
AGGGCCACGTGGTGCT
TGTAGCACGTGGTAAT
CGGCACACGTGGGTTG
TATCGCACGTGTAATG

Relative binding free energy, 0.17 kcal/mol:
GATTACACGTGTCGGT

Relative binding free energy, -0.16 kcal/mol:
TGGGGCACGTGCTAGA
AGGGCCACGTGTTAGT
CCTGGCACGTGGGATT

Relative binding free energy, -0.03 kcal/mol:
TGAAACACGTGCGGTG
TCAGGCACGTGTTTGG
GAAAACACGTGGTGTG
GGTGGCACGTGGGATT

Relative binding free energy, 0.4 kcal/mol:
TGGTTCACGTGCATTA
